Measured values as given in the RNAGym collection of RNA variant scans (doi:10.1093/nar/gkz1192).
Read counts are not given, so values of variants with three or more changes are uncertain.

B1: CPEB3 Ribozyme (parent)
chain: UAACAGGGGGCCACAGCAGAAGCGUUCACGUCGCAGCCCCUGUCAGAUUCUGGUGAAUCUGCGAAUUCUGCUGUAUAUCUC

Variants of: B1
Assay: self-cleavage, relative activity (ratio to wild type); higher = more cleavage; in vitro, sequencing
In short: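 For each CPEB3 ribozyme variant, relative activity is its cleaved/total read fraction divided by the unmutated ribozyme's. Barcoded error-prone PCR libraries were transcribed by T7 RNA polymerase (5 hours, 37°C) and held in DNase I for 15 min before an EDTA stop, with cleavage occurring throughout. Template-switching reverse transcription and Illumina sequencing were used to read the RNAs. A 5-read minimum applied, and results are the mean of three batches.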

Variant | self-cleavage
G10A A15U U48C U51A | 0.08
G9U A35U A47G | 0.07
G9A A64U U72C | 0.1
G9A A64U U72A | 0.1
G9A C40G U43C U66C U78C | 0.08
G9A U43C G46U U76C | 0.22
G9A U49C U58C | 0.08
G9U A35U U54C A56G U72C | 0.07
G9U U54C U60A U67C | 0.06
G9A C11G G19C U31A A65G U78C | 0.02
G9A G36C U54C | 0.41
G9U C40U U54C U74A | 0.25
G9A G19C C40G U54C A77G | 0.1
G9U U25C U58C | 0.05
G10A A15G U48C A64G | 0.16
G10A A13G A21G U26C | 0.06
G10A A18G G22U A28G A35G G36A U41A | 0.04
G9A G22A U26C U48C | 0.04
G9A U41C U58C U67A | 0.05
G9U U41A U76C A77G | 0.05
G9U C29U A47G | 0.19
G9C A21G U43C | 0.23
G9U G22A U78C | 0.04
G9A U41C U51A U72C | 0.84

Variant | self-cleavage
G9A U49C U76A | 0.05
G9U A21C U25C G30A U43C | 0.11
G9A C12U C23U A28G | 0.05
G9U A18U A28C U48C U54C | 0.11
G9A U41C A56G U76C U80C | 0.2
G10A A15G U26G C29U A35U G36A U51A | 0.03
G9A C11G G19C U31A A65G U72A A77U | 0.1
G9A U31C U54A U74C | 0.33
G9U U41C U80C | 0.16
G9C U26C C38U A65U | 0.11
G9U A20C U26C U54C U67C | 0.1
G10A A13G A35G C38U A64G | 0.08
G9A U26C U41C U67A U72C | 0.07
G9A U25C A35G C40U U54A | 0.15
G9U C44U U78C | 0.07
G9U C29U A35U A45G U49C | 0.04
G9U U43C A65U | 0.37
G9A C14U U51A C59G A64C A77U | 0.04
G10A A15G U25C A45U A65G A75G C81U | 0.03
G9U A28C C59A | 0.08
G9C U31C U60C A75G | 0.15
G9A U43C U54A C59U | 0.16
G9U A13G A21G A35G U54A U80C | 0.05
G9U A18C U25C | 0.24

Variant | self-cleavage
G10A A13C A45G U51C U54C | 0.05
G9U A13U U49C | 0.13
G10A A15C U26C C29G C37U A64G | 0.04
G9A U49C A56G U72G | 0.32
G9U G10U A13U U31A A64G | 0.06
G9C A45C U78C | 0.28
G9A U51A A65G | 0.12
G9A G10U A21G A45C A57G U66C U78C | 0.14
G10A A15U U48C U72A | 0.06
G9C G36U U41C U43C U80C | 0.07
G9A G30U C40U G42A U80C | 0.34
G9U A13U A20G U31C U60C U72C U78A | 0.06
G9U U41C U54A | 0.21
G9U A15G U43G G73A U80G | 0.27
G9A C12A U25C U60A | 0.16
G9U C29U U31C A47U | 0.06
G9A U25C A64U U66C | 0.06
G9U G63C U76C | 0.16
G9A G19A A20G U31C U67A U69A U72C | 0.03
G9A A56U G61A U78C | 0.05
G9A U25A A28G U58C U67C | 0.11
G9U U41A G53A | 0.16
G9U G10A A35G A45G U51A | 0.2
G9U G42A G61C G70U | 0.04

Variant | self-cleavage
G9U A13C U26C A47G U78C | 0.04
G9A U26C U76C | 0.1
G9A U25C A57G | 0.26
G9A C29U A35C U41C G70U | 0.05
G9A C14A A28G C37U U41C U60A | 0.04
G10A A18G C38G A45U U74C | 0.03
G9A C14U A47G U49C U60A | 0.04
G9U A18G A47U G52U | 0.07
G9U A13U G46A U49A A65G | 0
G9U A15G U25C U26C U67C U76A | 0.07
G9U C23A G53A U80C | 0.05
G9A C17U A28U U60C | 0.14
G9A U25C G52A | 0.06
G9C U69C C79U | 0.25
G9U U26C G33A U67C A77G | 0.05
G9U U72C U76C | 0.34
G9A U49C U54C U69C | 0.07
G9A C12U C23U | 0.18
G9C A13C A18G A45U U48C U49C | 0.41
G9U C11U U49A U60C U66C | 0.14
G9A U41G A56G | 0.37
G9U U31C A57G U69C | 0.21
G9C A18G U67C | 0.15
G9A U26A G46U A56G U58G A65G | 0.03

Variant | self-cleavage
G9U A15U U60A U80C | 0.07
G9A G19U G52A | 0.25
G9C A13U A20G A45U A56U U67C | 0.09
G9U U25C U43C A47G U51C U60C U66C | 0.26
G9A C17U C29G U78C | 0.13
G9U C32A U54C U60A U69A | 0.1
G9C A45U A64G | 0.22
G9A C27U C32G U54C C62U | 0.05
G9U U31C U51A U72A | 0.08
G9U A20G U25C | 0.2
G9A U31C U69C A77U | 0.04
G9U A20G U49C U54C A75G | 0.06
G9A C17U C29G U48C U58C | 0.07
G9A U43C A47U | 0.34
G9U U26A U48C U72C U78C | 0.05
G10A A15G C17U | 0.46
G9A C17A U25C U41A | 0.05
G9A G10A C39U | 0.32
G9U U26A U54C A56G G70A | 0.03
G9A U25C U60A U74A | 0.36
G9A U43G A75G | 0.04
G9U A20G A35U U58A G63A U78A | 0.06
G10A A15U U51A U54C U58A U66C | 0.13
G9U A35U A57U | 0.14

Variant | self-cleavage
G9U U31C A45G G70A | 0.17
G9C C12U A20U U60A | 0.29
G9A U26C U48C U54A | 0.14
G9C U54C A77G U78A | 0.05
G9A A56G A64G U66C | 0.05
G9C U31C A56G U72C U80C | 0.33
G9A U41A U48C U60C | 0.04
G9A U58A U80C | 0.23
G9A C37U U41C C71U | 0.07
G9A G24C G42A | 0.2
G10A A13G C37U A57G A64G U69A U80C | 0.05
G9C A21G G46U G53C U67C | 0.12
G9U G24A G73C | 0.29
G9A U26G U49C A65G U66C | 0.11
G9U G30A U41C | 0.18
G9U U72A U78C | 0.08
G9U U25C U26C U41A | 0.04
G9C A21U U31C U48C A57U U67C | 0.07
G9A G19C A28G C34A | 0.04
G9A C32G A77U | 0.17
G9C U67G U80C | 0.06
G9A A56U A64G U67A C68U U76A | 0.03
G9A C14G C23U A47U U51A U69C | 0.04
G9U A15G A20G U54C | 0.35

Variant | self-cleavage
G9A C34U G42A U51A U54A U58C A65G | 0.03
G9C U72A U78C | 0.12
G9C U54C U74A | 0.32
G9U U41C U49C G52A U67A | 0.06
G9U A21G G30U A65G | 0.14
G9A U41C U69C | 0.09
G9U G30C U69C G70A | 0.14
G9C U41C A45C A47G U54C U60A A65U | 0.08
G9A U49C U51C U60A U72C | 0.14
G9A U26C U51A G52A | 0.07
G9U U25C C32U | 0.12
G9U U25C U54G | 0.13
G9A G24A U41A C62A U80C | 0.07
G9U G30A C40U A45G U74A | 0.05
G9U U51C A65G U80A | 0.11
G9C A21U C44U U54A | 0.05
G9U A28G A56G | 0.19
G9A C14G C23U A47U | 0.28
G9U A13G A21G U26C A65U | 0.2
G9A U41C U80C | 0.15
G10A A13G U51C A64U | 0.26
G9A C12U U41C | 0.39
G9U A20G A28G U31C A35G U72G | 0.03
